From PMC8427951, “Design, synthesis, and preliminary evaluation of a potential synthetic opioid rescue agent” (Journal of Biomedical Science, 2021)

Target: human κ opioid receptor (KOR) (Homo sapiens, UniProt P41145)
Assay: cell-based
Parameters: host or cells: cAMP Hunter CHO-K1
Details: for KOR antagonism Imax (degree of antagonism): versus EC90 of U50,488H, normalized to nor-BNI, mean ± SEM

Sequence of UniProt P41145 (P41145 whole entry): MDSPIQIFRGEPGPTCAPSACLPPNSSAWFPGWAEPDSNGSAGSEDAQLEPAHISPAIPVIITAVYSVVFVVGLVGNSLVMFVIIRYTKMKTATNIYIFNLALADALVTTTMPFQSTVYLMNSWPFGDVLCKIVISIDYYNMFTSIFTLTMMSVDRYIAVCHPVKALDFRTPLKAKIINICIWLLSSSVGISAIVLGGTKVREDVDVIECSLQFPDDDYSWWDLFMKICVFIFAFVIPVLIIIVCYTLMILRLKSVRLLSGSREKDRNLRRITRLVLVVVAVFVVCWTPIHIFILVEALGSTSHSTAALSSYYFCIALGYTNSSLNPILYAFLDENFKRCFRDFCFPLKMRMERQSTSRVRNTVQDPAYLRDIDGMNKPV

SMILES | IC50 [nM] | KOR antagonism Imax (degree of antagonism) [%]
CCC(=O)O[C@@]12CCC(=O)[C@@H]3Oc4c(O)ccc5c4[C@@]31CCN(CC1CC1)[C@@H]2C5 [Compound 14] | 8.15 ± 1.1 | 49.27 ± 11.54
CCCO[C@@]12CCC(=O)[C@@H]3Oc4c(O)ccc5c4[C@@]31CCN(CC1CC1)[C@@H]2C5 [Compound 20] | 8.7 ± 1.89 | 46.68 ± 2.95
C=CCO[C@@]12CCC(=O)[C@@H]3Oc4c(O)ccc5c4[C@@]31CCN(CC1CC1)[C@@H]2C5 [Compound 21] | 10.7 ± 4.48 | 62.72 ± 18.41
O=C1CC[C@@]2(OC[C@H](O)CO)[C@H]3Cc4ccc(O)c5c4[C@@]2(CCN3CC2CC2)[C@H]1O5 [Compound 22] | 33.7 ± 3.77 | 84.97 ± 6.39
C=CCOC12CCC(=C)C3Oc4c(O)ccc5c4C31CCN(CC1CC1)C2C5 (centres unmarked) [Compound 28] | 8.54 ± 3.54 | 47.32 ± 12.19
C=C1CC[C@@]2(OCCC)[C@H]3Cc4ccc(O)c5c4[C@@]2(CCN3CC2CC2)[C@H]1O5 [Compound 29] | 4.49 ± 2.02 | 46.84 ± 16.34
C=C1CC[C@@]2(OC[C@H](O)CO)[C@H]3Cc4ccc(O)c5c4[C@@]2(CCN3CC2CC2)[C@H]1O5 [Compound 30] | 8.75 ± 2.05 | 89.12 ± 0.69
